According to PubChem BioAssay AID2060895 (Molecular Pharmacology Branch, DTP, NCI, 2025):
For part of its entries the source gives two or more results. The other results are left out here. The source may hold further records. Values given together repeat one measurement (runs, samples, wells, individuals or studies). Dates in brackets are months of testing.

System: PDC 899932-113-R3-J6 complex spheroid viability
Test: Anticancer human tumor 899932-113-R3-J6-PDC patient-derived melanoma cell line growth inhibition [RAS]
Conditions: for IC50: compound alone; for viability, T/C: stronger effect = lower value
From the text: RAS pathway inhibitors in Combinations in Complex Spheroids
A high-throughput screen of multi-cell type tumor spheroids was designed to identify active combinations of RAS pathway inhibitors and targeted small molecules. Complex spheroids include a stromal component modeled by human endothelial cells (HUVEC) and fibroblasts modeled by human mesenchymal stem cells (MSCs). The concentration ranges selected for each drug and investigational agent were based upon clinically achievable concentrations if the clinical Cmax of the agent was known.
Compounds. The drugs and investigational agents: abemaciclib (NSC768073), cobimetinib (NSC768068), divarasib (GDC6063, NSC841802), docetaxel (NSC628503), GDC-1971 (RLY-1971, NSC841576), gemcitabine (NSC613327), inavolisib (NSC800729), ipatasertib (NSC767898), KB-0742 (NSC834161), MRTX-1133 (NSC836407), osimertinib (NSC779217), RMC-4630 (NSC839698), RMC-6236 (NSC851965), RMC-6291 (NSC852671), Ro-3306 (NSC812927), sapanisertib (NSC764658), SN-38 (NSC673596), staurosporine (NSC755774), SY5609 (NSC837396), and tovorafenib (DAY101, NSC766906), were obtained from the National Cancer Institute (NCI) Developmental Therapeutics Program Chemical Repository. The FDA-approved anticancer drug set is available from the NCI Developmental Therapeutics Program. […] The stock solutions were prepared in dimethyl sulfoxide (DMSO, Sigma-Aldrich, St. Louis, MO, cat. D2650) at 800-fold the tested concentration and stored at -70 degrees C prior to their use. All drugs and investigational agents were tested over a range starting from a high concentration at or near the clinical Cmax and decreasing in half-log increments. If the clinical Cmax for an agent had not been determined, the highest concentration tested was 10 microM.
Cell Culture. All cells were maintained in an incubator at 37 degrees C and 5% CO2 with 95% humidity. The PDC lines were cultured according to standard operating procedures established by the NCI PDMR. All PDCs were thawed and cultured in Matrigel-coated flasks prepared with a working solution of 1X Ham's F-12 nutrient mix, without supplementation (Invitrogen, Waltham, MA, cat. 11765054), 100 U/mL penicillin-streptomycin (Invitrogen, cat. 15140122), and 2.5% Matrigel (Corning Inc., Corning, NY, cat. 354248) for the first three passages. The 362531-283-R-J2-PDC and 782815-120-R-J1-PDC lines were cultured in 6C/Colon 1B media, which includes advanced DMEM/F-12 (Thermo Fisher Scientific, cat. 12634028), 10 mM HEPES (Thermo Fisher Scientific, cat. 15630080), 1X GlutaMAX supplement (Thermo Fisher Scientific, cat. 35050061), 0.1 mg/mL primocin (InvivoGen, San Diego, CA, cat. ant-pm-2), 10% defined fetal bovine serum, heat inactivated (HyClone Laboratories Inc., Logan, UT, cat. SH30070.03HI), 50% L-WRN conditioned media (ATCC, cat. CRL-3276), 1.25 mM N-Acetyl-L-cysteine (Sigma-Aldrich, cat. A9165), 10 mM nicotinamide (Sigma-Aldrich, cat. N0636), 1X B-27 supplement (Thermo Fisher Scientific, cat. 17504044), 1X N-2 supplement (Thermo Fisher Scientific, cat. 17502048), 50 ng/mL human EGF (Thermo Fisher Scientific, cat. PHG0311), and 10 microM Y-27632 dihydrochloride (Tocris Bioscience, cat. 1254). The K12877-001-R-J1-PDC line was cultured in 6I media, which includes all 6C/Colon 1B media plus 10 ng/mL human FGF-10 (PeproTech, cat. 100-26), 1 ng/mL human FGF-2 (PeproTech, cat. 100-18B), 1 µM prostaglandin E2 (Tocris Bioscience, cat. 2296), […] hydrocortisone (Sigma-Aldrich, cat. H4001), and […] bovine insulin (Sigma-Aldrich, cat. I6634). The K86415-001-R-J1-PDC line was cultured in 6D media, which includes all 6C/Colon 1B media components minus the L-WRN conditioned media. The 485176-168-R4-J1-PDC was cultured in PANC media, which includes all 6C/Colon 1B media plus 100 ng/mL human FGF-10 (PeproTech, cat. 100-26), 500 nM SB-431542 (Selleckchem, cat. S1067), and 10 nM gastrin (Tocris Bioscience, cat. 3006). […]
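Wherever viability, T/C is given: spheroids exposed to agents for seven days before readout; 100% = DMSO vehicle control wells.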

| Structure (SMILES) | IC50 | viability, T/C (compound alone 0.01 µM) | viability, T/C (compound alone 1 µM) | other results |
| --- | --- | --- | --- | --- |
| CC1(O)CCCC1n1c(=O)c(C(F)F)cc2cnc(NC3CCN(S(C)(=O)=O)CC3)nc21 (stereo not drawn) | 3.52 µM, 826 nM [2024-08] and 2.8 µM, 2.51 µM [2024-09] |  |  |  |
| O=C(c1ccc(F)c(F)c1Nc1ccc(I)cc1F)N1CC(O)([C@@H]2CCCCN2)C1 |  | 43.6%, 24.6% [2024-08] and 50.3%, 27% [2024-09] |  |  |
| CCc1c2c(nc3ccc(O)cc13)-c1cc3c(c(=O)n1C2)COC(=O)[C@]3(O)CC | 18.9 nM, 6.15 nM [2024-08] and 20.8 nM, 37.6 nM [2024-09] |  |  |  |
| CC(C)n1nc(-c2ccc3oc(N)nc3c2)c2c(N)ncnc21 |  | 86%, 78.9% [2024-08] and 89.6%, 104% [2024-09] |  | viability, T/C (compound alone 0.1 µM): 99.7%, 42.2% [2024-08] and 43.3%, 51.5% [2024-09] |
| CCC(CC)c1cc(NC2CCC(N)C2)n2nccc2n1 (stereo not drawn) |  |  | 78%, 59.7% [2024-08] and 86.4%, 87.7% [2024-09] |  |
| C[C@@H](NC(=O)c1ncnc(N)c1Cl)c1ncc(C(=O)Nc2cc(C(F)(F)F)c(Cl)cn2)s1 |  |  | 140%, 155% [2024-08] and 150%, 167% [2024-09] | viability, T/C (compound alone 0.316 µM): 132%, 152% [2024-08] and 163%, 156% [2024-09] |
